Reference: PubChem BioAssay AID504332 (National Center for Advancing Translational Sciences (NCATS), 2011)
Out of some 350,000 compounds screened, about 31,000 (8.9%) were called active. Inconclusive means that the source gave no clear call. Such entries were picked first, then a sample of the others. Calls come from the whole dose curve; as a rule, active = well fitted inhibition curve with a large enough effect; inconclusive = small, poorly fitted or top-dose-only effect; inactive = no such curve, though single readings can be large or run the other way. A potency beside an inconclusive call is a rough fit, not a confirmed value. Some compounds were tested as several samples or in several runs, with calls that do not always agree.

target: Histone-lysine N-methyltransferase EHMT2 (Homo sapiens) (UniProt Q96KQ7); assay: qHTS Assay for Inhibitors of Histone Lysine Methyltransferase G9a; settings: G9a H3K9 monomethylation, AlphaScreen, 2 h; activity, negative = inhibition: at 59 µM (top of the series) unless noted; note: nearly all actives have a fitted effect of over 75% in size
How it was run: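 AlphaScreen read-out: biotin-H3K9 peptide (500 nM) methylation by 20 nM enzyme with 20 uM SAM, 2 h at room temperature after 15 min compound preincubation; anti-monomethyl H3K9 antibody plus donor/acceptor beads, 10 min dark.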
% is set by controls: 0 for no effect and ±100 for the full control effect; potency is the fitted concentration of half-maximal effect; tags give direction and shape of the fitted curve.

Sequence of UniProt Q96KQ7 (Q96KQ7 whole entry, looked up): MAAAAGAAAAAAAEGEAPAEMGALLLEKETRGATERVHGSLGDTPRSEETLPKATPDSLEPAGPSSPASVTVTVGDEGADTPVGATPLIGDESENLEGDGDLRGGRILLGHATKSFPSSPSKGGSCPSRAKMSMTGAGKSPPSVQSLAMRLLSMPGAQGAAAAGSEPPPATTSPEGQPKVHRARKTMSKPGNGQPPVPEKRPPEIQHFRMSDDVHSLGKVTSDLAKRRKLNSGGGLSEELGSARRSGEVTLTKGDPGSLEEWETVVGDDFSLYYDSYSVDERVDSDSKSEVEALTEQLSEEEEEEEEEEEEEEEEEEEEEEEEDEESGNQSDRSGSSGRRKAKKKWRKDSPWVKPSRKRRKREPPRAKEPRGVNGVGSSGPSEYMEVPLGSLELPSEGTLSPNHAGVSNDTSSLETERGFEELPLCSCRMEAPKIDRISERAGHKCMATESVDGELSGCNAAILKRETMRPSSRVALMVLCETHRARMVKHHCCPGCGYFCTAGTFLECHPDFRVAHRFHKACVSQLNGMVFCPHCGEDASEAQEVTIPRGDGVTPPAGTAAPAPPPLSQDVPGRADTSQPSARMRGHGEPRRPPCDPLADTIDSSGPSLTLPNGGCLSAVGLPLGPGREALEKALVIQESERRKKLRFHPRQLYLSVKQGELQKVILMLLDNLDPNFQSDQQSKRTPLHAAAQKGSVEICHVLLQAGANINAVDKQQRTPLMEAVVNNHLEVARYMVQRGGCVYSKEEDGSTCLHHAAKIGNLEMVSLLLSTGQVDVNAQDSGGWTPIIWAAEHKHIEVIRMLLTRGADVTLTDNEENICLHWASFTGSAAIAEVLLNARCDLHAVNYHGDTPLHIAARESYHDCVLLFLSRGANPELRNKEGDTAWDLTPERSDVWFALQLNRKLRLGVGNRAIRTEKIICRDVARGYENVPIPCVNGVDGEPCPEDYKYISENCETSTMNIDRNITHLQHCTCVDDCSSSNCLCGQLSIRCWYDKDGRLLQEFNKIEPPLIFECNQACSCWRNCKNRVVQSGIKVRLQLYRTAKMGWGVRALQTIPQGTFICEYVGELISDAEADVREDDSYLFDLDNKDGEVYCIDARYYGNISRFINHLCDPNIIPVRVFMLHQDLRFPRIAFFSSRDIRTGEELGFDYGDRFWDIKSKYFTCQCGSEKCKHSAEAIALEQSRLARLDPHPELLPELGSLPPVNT

| SMILES | Potency | activity, negative = inhibition |
| --- | --- | --- |
| COc1cc2occc2c2oc(=O)ccc12 | inconclusive: 100 µM [inhibitor, single point] |  |
| CCOC(=O)c1c(-n2c(C)cc(C=C3C(=O)NC(=O)NC3=O)c2C)sc2c1CCCC2 | inconclusive: 15.8 µM [inhibitor, partial curve, poor fit] |  |
| Nc1ccc2c3c(cccc13)CC2 | active: 39.8 µM |  |
| COc1cccc(CNCCc2c[nH]c3ccccc23)c1OC | inconclusive: 44.7 µM [inhibitor, partial curve, poor fit] |  |
| CC[C@H](CO)NC(=O)[C@H]1C=C2c3cccc4[nH]cc(c34)C[C@@H]2N(C)C1 | active: 7.94 µM |  |
| O=C(c1ccc(N2CCCCCC2)c([N+](=O)[O-])c1)N1CCC2(CC1)OCCO2 | inconclusive: 39.8 µM [inhibitor, partial curve, poor fit] |  |
| CC(C)Sc1nnc([C@@H](N)Cc2c[nH]c3ccccc23)o1 | inconclusive: 79.4 µM [inhibitor, single point] |  |
| COc1cc(C)c(CN2CCN(c3ccccc3)CC2)cc1C | inconclusive: 31.6 µM [inhibitor, partial curve, poor fit] |  |
| COc1ccc(OCC(=O)N2CCN(C3CCC(c4ccccc4)CC3)CC2)cc1 (stereo not given) | inconclusive: 31.6 µM [inhibitor, single point] |  |
| Cc1ccc(C(=O)n2cc(CCN3CCS(=O)(=O)CC3)c3ccccc32)cc1 | inconclusive: 89.1 µM [inhibitor, single point] |  |
| Cc1ccc(CC2C(=O)N(C)C(=O)N(C)C2=O)s1 | active: 7.94 µM |  |
| COC(=O)CC1=C(C(=O)OC)C2(C(=O)N(C)c3ccccc32)C(C#N)=C(N)O1 (stereo not given) | inconclusive: 89.1 µM [inhibitor, single point] |  |
| CCC(=NCCN1CCOCC1)c1c(O)n(-c2ccccc2C)c(=O)[nH]c1=O | active: 28.2 µM |  |
| S=C=S |  | inactive: 2.67% |
| CCCCCCOc1ccc(CN2CCN(C)CC2)cc1 |  | inconclusive: -54% [inhibitor] |
| CCCCn1c(O)c(C(C)=NCCc2ccccc2)c(=O)[nH]c1=O |  | inactive: -19.7% [at 12.7 µM] |
| O=C(NC(=S)Nc1ccccc1N1CCCC1)c1ccccc1Br | active: 10 µM |  |
| CN(C)c1ccc(NC(=O)CSc2nc(-c3ccco3)cc(C(F)(F)F)n2)cc1 | inconclusive: 1 µM [inhibitor, partial curve, poor fit] |  |
| CCCCn1cnc2cc(NCc3cccc(OC)c3O)ccc21 | inconclusive: 79.4 µM [inhibitor, single point] |  |
| CCC(CO)(C(=O)OC1C[N+]2(C)CCC1CC2)c1ccccc1 (stereo not given) | inconclusive: 22.4 µM [inhibitor, single point] |  |
| C#CCNc1ccncc1S(=O)(=O)NC(=O)NC(C)C | inconclusive: 31.6 µM [inhibitor, single point] |  |
| COc1ccc(-c2c(C)nn3c(-c4ccccc4)cc(C)nc23)cc1OC | inconclusive: 2.24 µM [inhibitor, partial curve, poor fit] |  |
| COC(=O)c1c(C)n(Cc2ccc3c(c2)OCO3)c2ccc(O)cc12 | active: 35.5 µM |  |

| SMILES | Potency | activity, negative = inhibition |
| --- | --- | --- |
| CCc1n[nH]c(CCN)n1 | active: 56.2 µM |  |
| COc1ccc2[nH]c(C)c(CCNCc3cc(OC)c4c(c3)OCO4)c2c1 | inconclusive: 6.31 µM [inhibitor, single point] |  |
| Cc1ccc(N2C(=O)NC(=O)/C(=C\c3cccn3C(C)(C)C)C2=O)cc1 | inconclusive: 20 µM [inhibitor, single point] |  |
| CCOC(=O)c1ccc2c(c1)N(CC)C(=O)c1ccccc1S2 | active: 44.7 µM |  |
| Cc1cc(C(=O)OCC(=O)NC(=O)c2cccn2C)c2ccccc2n1 | inconclusive: 8.91 µM [inhibitor, partial curve, poor fit] |  |
| Cc1cccnc1-n1c(-c2ccco2)nc2ccccc2c1=O | active: 50.1 µM |  |
| C=CCn1c(O)c(C(C)=Nc2ccc(N(CC)CC)cc2)c(=O)[nH]c1=O |  | inconclusive: -92% [inhibitor] |
| COC(=O)[C@H]1[C@H]2C[C@@H]3c4[nH]c5cc(OC)ccc5c4CCN3C[C@H]2C[C@@H](OC(=O)/C=C/c2cc(OC)c(OC)c(OC)c2)[C@@H]1OC | active: 8.91 µM |  |
| O=C(CF)NC(NC(=S)Nc1cccc([N+](=O)[O-])c1)C(Cl)(Cl)Cl (stereo not given) | active: 35.5 µM |  |
| CC(=Nc1ccc2c(c1)CCC2)c1c(O)n(C2CCCCC2)c(=O)[nH]c1=O | inconclusive: 89.1 µM [inhibitor, partial curve, poor fit] |  |
| C[N+]1(C)CCO[C@](O)(c2ccc(-c3ccc([C@]4(O)C[N+](C)(C)CCO4)cc3)cc2)C1 |  | inactive: 13.3% [at 21.5 µM] |
| Nc1ncnc2c1ncn2[C@@H]1O[C@H](COP(=O)(O)CP(=O)(O)OP(=O)(O)O)[C@@H](O)[C@H]1O | active: 12.6 µM |  |
| O=C(O)/C=C\C(=O)O |  | inactive: -2.82% |
| Brc1ccccc1OCCCN1CCOCC1 | active: 7.94 µM |  |
| CCC(CC)c1nnc(NC(=O)CC(C)c2ccccc2)s1 (stereo not given) | inconclusive: 25.1 µM [inhibitor, single point] |  |
| CN1C(=O)N(C)C(=O)C2(Cc3c(ccc4ccccc34)N(C)C2)C1=O | inconclusive: 1.78 µM [inhibitor, full curve, poor fit] |  |
| COC(=O)c1ccc(CN2CCN(Cc3ccccc3)CC2)cc1 |  | inactive: -5.75% |
| O=C(Cc1ccc(N(CCCl)CCCl)cc1)NC(Cc1ccc(Cl)cc1)C(=O)O (stereo not given) | inconclusive: 70.8 µM [inhibitor, single point] |  |
| O=C(CSc1ccccn1)Nc1cccc2ccccc12 | inconclusive: 39.8 µM [inhibitor, single point] |  |
| CCN(CC)c1ccc(N=Cc2c(O)n(-c3ccccc3C)c(=O)[nH]c2=O)cc1 | inconclusive: 3.98 µM [inhibitor, single point] |  |
| OC(O)C(Cl)(Cl)Cl |  | inactive: 24.4% |
| Cn1c(O)c(N=Nc2ccc(S(=O)(=O)N3CCOCC3)cc2)c(=O)n(C)c1=O | inconclusive: 39.8 µM [inhibitor, partial curve, poor fit] |  |
